The values that follow come from US20210346328A1, “COMPOSITIONS AND METHODS FOR TREATING METABOLIC DISORDERS” (The Johns Hopkins University, priority 2018, published 2021).

One assay relates to DRG neurons. In words: Calcium imaging of isolated DRG neurons. The conditions noted are these: DRG neurons of EP4Avil−/− mice, with or without PGE2 pre-treatment.
The subject of assay [1] is EP4Avil−/− mice and COX2OC−/− mice. In words: Propranolol rescue of bone loss in knockout mice (μCT of femurs). It counts as in vivo, mouse. The conditions noted are these: 0.5 mg per kg per day propranolol for 6 weeks.

On to `CCCCC[C@H](O)/C=C/[C@H]1[C@H](O)CC(=O)[C@@H]1C/C=C\CCCC(=O)O` [PGE2, prostaglandin E2], for which, in the assay on DRG neurons, the “DRG neuron activation, calcium imaging” value is recorded as “reduced significantly”.
Regarding `CC(C)NCC(O)COc1cccc2ccccc12` (stereo not drawn) [propranolol], the “bone phenotype (μCT of femurs)” value in assay [1] (COX2OC−/− mice) and in assay [1] (EP4Avil−/− mice) was “partially rescued” each time.
